Experimental data taken from US10662153B2 (The University of Toledo, priority 2016, dated 2020).
At least one structure is not confirmed: it was looked up by name or label, or the drawing left a doubt.

Tests used:
[1] = test system: wild-type mice on a high fat diet
PPARα [2] = target: T1, PPARα (Mus musculus, UniProt P23204); assay: Pull-down assay with ligand-coupled sepharose resins, PPARα OE 3T3-L1 cells; assay type: binding; set-up: expressed in transfected cells
T1 sequence (P23204 1-468): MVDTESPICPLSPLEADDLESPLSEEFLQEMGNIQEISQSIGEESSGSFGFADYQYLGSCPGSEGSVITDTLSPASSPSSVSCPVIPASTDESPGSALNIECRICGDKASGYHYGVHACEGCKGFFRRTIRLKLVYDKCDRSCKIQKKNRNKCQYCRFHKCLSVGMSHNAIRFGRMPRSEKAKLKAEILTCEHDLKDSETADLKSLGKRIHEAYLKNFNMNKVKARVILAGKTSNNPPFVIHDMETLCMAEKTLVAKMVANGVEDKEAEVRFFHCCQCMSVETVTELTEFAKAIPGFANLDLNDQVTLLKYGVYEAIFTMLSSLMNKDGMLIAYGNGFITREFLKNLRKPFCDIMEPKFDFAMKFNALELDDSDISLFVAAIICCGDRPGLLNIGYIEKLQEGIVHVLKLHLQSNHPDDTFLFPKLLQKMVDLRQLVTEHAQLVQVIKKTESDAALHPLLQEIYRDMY
Procedure: The ligand coupling was performed according to the GE Healthcare instructions (71-7097-00 AE, pg. 6) for EAH Sepharose™ 4B. The procedure in the online instructions was titled “A general ligand coupling procedure”. […] Resin coupling procedures were conducted in a DMF/H2O solvent system (1:1) with a final concentration of 0.1 M EDC*HCl. […] Upon completion, resins were washed according to the GE instructions (3 alternating washings with 0.5 M NaCl containing 0.1 M sodium acetate pH 4.5 and 0.5 M NaCl containing 0.1 M Tris pH 8) over a 10-15 μm fritted filter. As an additional step to the GE instructions, matrix-coupled bilirubin and biliverdin coupled preparations were further washed with 50% DMSO/H2O solutions (250 mL) to remove any unreacted ligand. The filtrate was nearly colorless after this step. […] The resins were suspended in 20% EtOH/H2O (15 mL) and stored at 4° C. for 16 h in capped sample vials. The ligand-coupled resin settles overnight and the supernatant was carefully decanted until minimal amounts of 20% EtOH/H2O covered the resin. […]
Whole cell extracts (WCE) were prepared by freezing the cell pellet overnight at −80° C. […] Immunoreactivity was visualized and quantified by infrared scanning in the Odyssey system (LI-COR Biosciences). […]

3T3-L1 cells = assay: Adipogenesis assay (Nile Red lipid accumulation, Real-time PCR); assay type: cell-based, mouse
[3] = test system: PPARα KO mice on a high fat diet; assay: High fat diet PPARα KO mice treated for seven days
PPARα [4] = target: T1, PPARα; assay: Promoter reporter assay (PPRE-3tk-luc luciferase) in Cos7 cells; conditions: dose dependence, 24 hours
[5] = WT mice, bilirubin 30 mg/kg i.p.
[6] = WT mice, bilirubin 30 mg/kg or fenofibrate 90 mg/kg i.p.
[7] = 10 μM, differentiated 3T3-L1 adipocytes

C=CC1=C(C)/C(=C/c2[nH]c(Cc3[nH]c(/C=C4\NC(=O)C(C)=C4C=C)c(C)c3CCC(=O)O)c(CCC(=O)O)c2C)NC1=O [bilirubin]
plasma insulin levels ([1]; 8 hour fast, bilirubin 30 mg/kg or fenofibrate 90 mg/kg i.p.): not significantly reduced
blood glucose ([1]; WT mice, 8 hour fast, bilirubin 30 mg/kg or fenofibrate 90 mg/kg i.p.): reduced
FGF21 mRNA levels in liver [1, 5]: significantly (p=0.05) enhanced
FGF21 serum levels [1, 5]: significantly (p=0.05) enhanced
lean mass [1, 6]: increased
percentage body fat [1, 6]: decreased
direct binding to PPARα (pull-down) (PPARα [2]; ligand coupled to sepharose beads): can directly bind
binding to PPARα, bilirubin compared to biliverdin (pull-down) (PPARα [2]; sepharose beads cross-linked with bilirubin or biliverdin): preferential binding to PPARα compared to biliverdin
lipid accumulation (3T3-L1 cells; 50 μM): substantially decreased lipid accumulation
FGF21 mRNA levels in liver [3]: not
FGF21 serum levels [3]: not
blood glucose [3]: absent
lean mass [3]: not observed
percentage body fat [3]: not observed
PPARα activity (PPRE-3tk-luc) (PPARα [4]; PPARα overexpression, vs 0 μM): significantly (p<0.05) increased
PPRE-3tk-luc promoter activation in the absence of PPARα (PPARα [4]; empty vector): did not activate

CC(C)OC(=O)C(C)(C)Oc1ccc(C(=O)c2ccc(Cl)cc2)cc1 [fenofibrate]
expression of CPT1 (3T3-L1 cells; [7]): significantly (p<0.001) increased expression of CPT1
expression of FAS (3T3-L1 cells; [7]): significantly (p<0.001) decreased expression of FAS
expression of PPARγ2 (3T3-L1 cells; [7]): inhibited expression
